According to patent EP2424865B1 (Boehringer Ingelheim International GmbH, priority 2009, dated 2010):
Where two headings read alike, the source gives them in different places.

How the values were obtained:
CYP2C19 = CYP2C19 (Homo sapiens, UniProt P33261); assay: Biological Test Example 8: CYP2C19 inhibition ([N-methyl-14C]-Diazepam N-demethylation); conditions: human, recombinant CYP2C19, probe [N-methyl-14C]-Diazepam, N-demethylation
CYP2C9 = CYP2C9 (Homo sapiens, UniProt P11712); assay: Biological Test Example 7: CYP2C9 inhibition ([O-methyl-14C]-Naproxen O-demethylation); conditions: human, recombinant CYP2C9, probe [O-methyl-14C]-Naproxen, O-demethylation
Chain of CYP2C9 (P11712 whole entry): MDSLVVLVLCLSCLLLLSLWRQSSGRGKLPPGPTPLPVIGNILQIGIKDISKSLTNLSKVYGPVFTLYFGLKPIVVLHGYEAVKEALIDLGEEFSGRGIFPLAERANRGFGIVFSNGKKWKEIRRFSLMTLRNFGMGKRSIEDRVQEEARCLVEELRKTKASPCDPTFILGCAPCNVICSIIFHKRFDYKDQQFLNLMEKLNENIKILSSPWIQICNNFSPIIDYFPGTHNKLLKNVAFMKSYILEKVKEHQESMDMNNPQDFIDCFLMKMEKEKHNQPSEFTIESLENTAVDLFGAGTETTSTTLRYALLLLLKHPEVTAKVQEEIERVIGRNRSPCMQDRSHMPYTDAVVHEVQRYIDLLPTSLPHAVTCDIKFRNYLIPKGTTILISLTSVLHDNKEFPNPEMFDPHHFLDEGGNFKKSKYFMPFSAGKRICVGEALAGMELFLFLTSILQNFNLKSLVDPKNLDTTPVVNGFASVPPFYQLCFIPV

11β-HSD1 [1] = target: T1, 11β-HSD1 (Homo sapiens, UniProt P28845); assay: biochemical; conditions: read-out: Average % control inhibition at 100 nM
T1 sequence (P28845 whole entry): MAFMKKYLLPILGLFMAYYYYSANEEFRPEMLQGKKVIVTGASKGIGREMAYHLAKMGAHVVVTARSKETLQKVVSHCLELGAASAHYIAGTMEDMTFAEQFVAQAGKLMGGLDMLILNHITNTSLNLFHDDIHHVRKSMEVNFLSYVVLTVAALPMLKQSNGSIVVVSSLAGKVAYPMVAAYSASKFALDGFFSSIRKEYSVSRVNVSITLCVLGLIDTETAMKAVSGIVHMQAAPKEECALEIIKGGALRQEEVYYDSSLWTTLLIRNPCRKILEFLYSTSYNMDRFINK

[2] = target: T2, human recombinant cytochrome P450 2C19 (Homo sapiens, UniProt P33261); assay: Biological Test Example 8: CYP2C19 inhibition ([N-methyl-14C]-Diazepam N-demethylation)
T2 sequence (P33261 whole entry): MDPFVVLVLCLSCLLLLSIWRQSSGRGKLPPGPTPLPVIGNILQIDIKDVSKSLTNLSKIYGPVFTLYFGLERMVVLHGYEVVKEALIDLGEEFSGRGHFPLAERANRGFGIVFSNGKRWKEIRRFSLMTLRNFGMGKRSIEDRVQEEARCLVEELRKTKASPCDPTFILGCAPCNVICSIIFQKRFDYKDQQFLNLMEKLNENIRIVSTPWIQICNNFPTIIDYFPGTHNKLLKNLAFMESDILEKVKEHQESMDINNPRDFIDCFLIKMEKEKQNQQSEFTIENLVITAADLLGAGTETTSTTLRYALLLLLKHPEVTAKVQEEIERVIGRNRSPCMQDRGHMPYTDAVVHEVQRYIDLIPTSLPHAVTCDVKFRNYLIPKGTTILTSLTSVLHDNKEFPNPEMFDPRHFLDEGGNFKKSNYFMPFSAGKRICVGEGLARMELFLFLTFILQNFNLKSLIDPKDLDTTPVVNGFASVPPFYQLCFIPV

[3] = target: human recombinant cytochrome P450 2C9 (Homo sapiens, UniProt P11712); assay: Biological Test Example 7: CYP2C9 inhibition ([O-methyl-14C]-Naproxen O-demethylation)
Chain of human recombinant cytochrome P450 2C9 (P11712 whole entry): as the sequence (P11712 whole entry) above

[4] = target: human recombinant cytochrome P450 3A4 (Homo sapiens, UniProt P08684)
Chain of human recombinant cytochrome P450 3A4 (P08684 whole entry): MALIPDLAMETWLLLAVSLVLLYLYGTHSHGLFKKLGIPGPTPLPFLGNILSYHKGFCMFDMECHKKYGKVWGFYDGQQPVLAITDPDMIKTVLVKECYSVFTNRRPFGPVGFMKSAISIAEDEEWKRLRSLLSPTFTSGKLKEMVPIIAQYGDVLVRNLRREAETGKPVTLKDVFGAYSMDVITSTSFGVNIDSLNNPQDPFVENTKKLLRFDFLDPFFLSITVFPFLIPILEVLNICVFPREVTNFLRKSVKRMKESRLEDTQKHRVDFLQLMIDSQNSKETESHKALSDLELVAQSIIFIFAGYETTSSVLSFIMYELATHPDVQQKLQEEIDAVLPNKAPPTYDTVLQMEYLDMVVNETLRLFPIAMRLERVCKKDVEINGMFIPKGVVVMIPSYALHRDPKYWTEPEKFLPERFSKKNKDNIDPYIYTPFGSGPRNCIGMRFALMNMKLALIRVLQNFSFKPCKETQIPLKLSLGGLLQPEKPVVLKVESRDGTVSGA

11β-HSD1 [5] = target: T1, 11β-HSD1; assay: biochemical; conditions: for inhibition at 0.1 µM: read-out: Biological Test Example 1 Average % inhibition at 100 nM, at 100 nM
[6] = target: T2, human recombinant cytochrome P450 2C19
[7] = Slurry experiment on the stability of the crystal form (suspension in water, x-ray powder diffraction); assay type: physicochemical; conditions: during the measurement by XRPD (30 minutes)

Chain of CYP2C19 (P33261 whole entry): as the sequence (P33261 whole entry) above

Row | SMILES | inhibition at 0.1 µM (11β-HSD1 [1]) [%] | IC50 [2] [µM] | IC50 [3] [µM] | IC50 [4] [µM] | inhibition at 0.1 µM (11β-HSD1 [5]) [%] | further results
1 | COC(C)(C)Cn1ccc(-c2ccc(C(C)N3CC[C@](CC(C)(C)O)(c4ccccc4)OC3=O)cc2)cc1=O (stereo in doubt) [Example 83, (S)-6-(2-Hydroxy-2-methyl-propyl)-3-(1-{4-[1-(2-methoxy-2-methylpropyl)-2-oxo-1,2-dihydro-pyridin-4-yl]-phenyl}-ethyl)-6-phenyl-[1,3]oxazinan-2-one] | 54 | – | – | – | – | IC50 (CYP2C19): 10 µM; IC50 (CYP2C9): 14 µM
2 | COCC(C)Cn1ccc(-c2ccc([C@H](C)N3CC[C@](CC(C)(C)O)(c4ccccc4)OC3=O)cc2)cc1=O (stereo partly drawn) [Example 81, (S)-6-(2-Hydroxy-2-methyl-propyl)-3-((S)-1-{4-[1-(3-methoxy-2-methylpropyl)-2-oxo-1,2-dihydro-pyridin-4-yl]-phenyl}-ethyl)-6-phenyl-[1,3]oxazinan-2-one] | 11 | 12 | 30 | > 50 | – | –
3 | COC[C@]1(c2ccccc2)CCN([C@@H](C)c2ccc(-c3ccn(C)c(=O)c3)cc2)C(=O)O1 [Example 78, (R)-6-Methoxymethyl-3-{(S)-1-[4-(1-methyl-2-oxo-1,2-dihydro-pyridin-4-yl)-phenyl]-ethyl}-6-phenyl-[1,3]oxazinan-2-one] | 58 | 40 | 39 | 47 | – | –
4 | C[C@@H](c1ccc(-c2cccn(C)c2=O)cc1)N1CC[C@](CCCO)(c2ccc(F)cc2)OC1=O [Example 42, (R)-6-(4-fluorophenyl)-6-(3-hydroxypropyl)-3-((S)-1-(4-(1-methyl-2-oxo-1,2-dihydropyridin-3-yl)phenyl)ethyl)-1,3-oxazinan-2-one] | – | – | – | – | 88.4 | IC50 (11β-HSD1 [5]): 0.0067 µM; IC50 (11β-HSD1 [5]; Biological Test Example 1 IC50 Range, microsomal preparation of human 11β-HSD1, SPA): < 0.1 µM
5 | C[C@@H](c1ccc(-c2ccn(C3CC3)c(=O)c2)cc1)N1CCC(CC(C)(C)O)(C2CCOCC2)OC1=O (single isomer, unassigned) [Example 91 Isomer 1] | – | – | – | – | 22.5 | IC50 (11β-HSD1 [5]): > 0.1 µM
6 | CC(CO)Cn1ccc(-c2ccc([C@H](C)N3CC[C@](CC(C)(C)O)(c4ccccc4)OC3=O)cc2)cc1=O (stereo partly drawn) [Example 82, (S)-6-(2-Hydroxy-2-methyl-propyl)-3-((S)-1-{4-[1-(3-hydroxy-2-methylpropyl)-2-oxo-1,2-dihydro-pyridin-4-yl]-phenyl}-ethyl)-6-phenyl-[1,3]oxazinan-2-one] | -12 | 29 | 48 | > 50 | – | –
7 | C[C@@H](c1ccc(-c2ccc(=O)n(C)c2)cc1)N1CC[C@](CC(C)(C)O)(c2ccccc2F)OC1=O [Example 23, (S)-6-(2-fluorophenyl)-6-(2-hydroxy-2-methylpropyl)-3-((S)-1-(4-(1-methyl-6-oxo-1,6-dihydropyridin-3-yl)phenyl)ethyl)-1,3-oxazinan-2-one] | – | – | – | – | – | IC50 [6]: 44 µM
8 | C[C@@H](c1ccc(-c2ccn(C3CC3)c(=O)c2)cc1)N1CC[C@](CC(C)(C)O)(c2ccccc2)OC1=O [anhydrous form of Example 75, 3-{(S)-1-[4-(1-Cyclopropyl-2-oxo-1,2-dihydro-pyridin-4-yl)-phenyl]-ethyl}-(S)-6-(2-hydroxy-2-methyl-propyl)-6-phenyl-[1,3]oxazinan-2-one] | – | – | – | – | – | persistence of the anhydrous state [7]: did not remain in the anhydrous state
9 | C[C@@H](c1ccc(-c2ccn(C3CC3)c(=O)c2)cc1)N1CCC(CC(C)(C)O)(C2CC(F)(F)C2)OC1=O (single isomer, unassigned) [Example 95 Isomer 1] | – | – | – | – | 12.8 | –
